Hit rate of the full screen: of about 270,000 compounds, about 620 (0.23%) were called active. Inconclusive results, whose numbers are uncertain, are shown with a selection of clear calls. Calls follow the shape of the dose curve; as a rule, active = well fitted inhibition curve with a large enough effect in the polarisation, with a control signal flat (not every such curve was filed as active); inconclusive = small, poorly fitted or top-dose-only effect, or effect the other way, or a change in a side signal; inactive = no such curve, though single readings can be large or run the other way; the % refers to the polarisation. A potency beside an inconclusive call is a rough fit, not a confirmed value. “Side channel” marks fits to a control or component signal instead of the main read-out.
Biological target: Menin (Homo sapiens) (UniProt O00255)
UniProt O00255, sequence (O00255 whole entry, looked up): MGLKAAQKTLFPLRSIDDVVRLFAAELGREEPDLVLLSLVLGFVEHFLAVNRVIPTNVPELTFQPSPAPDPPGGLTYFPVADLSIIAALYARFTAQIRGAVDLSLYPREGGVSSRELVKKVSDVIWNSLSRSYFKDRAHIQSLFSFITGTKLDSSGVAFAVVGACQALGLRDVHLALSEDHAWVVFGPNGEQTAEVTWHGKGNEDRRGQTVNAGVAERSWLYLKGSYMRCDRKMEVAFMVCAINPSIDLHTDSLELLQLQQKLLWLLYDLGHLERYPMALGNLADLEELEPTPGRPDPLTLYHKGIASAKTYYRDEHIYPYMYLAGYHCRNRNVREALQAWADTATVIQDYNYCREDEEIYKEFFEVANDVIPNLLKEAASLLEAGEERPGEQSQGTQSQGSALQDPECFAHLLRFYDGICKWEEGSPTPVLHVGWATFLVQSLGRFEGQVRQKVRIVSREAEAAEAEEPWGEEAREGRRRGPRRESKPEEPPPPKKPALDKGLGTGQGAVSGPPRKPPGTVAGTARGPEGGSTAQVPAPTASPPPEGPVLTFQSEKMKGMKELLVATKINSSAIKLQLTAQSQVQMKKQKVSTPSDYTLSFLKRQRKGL
Experiment: qHTS Assay for Inhibitors Targeting the Menin-MLL Interaction in MLL Related Leukemias: Competition With Texas Red Labeled MLL-derived Mutant Peptide
Details: fluorescence polarization; series mostly up to 61.6 µM
Potency is read from the fitted curve at half-maximal effect; tags tell the direction and shape of the fitted curve or compound fluorescence and quenching.

SMILES	Potency
Cc1cc(C)nc(NC(=O)c2cccc([N+](=O)[O-])c2C)n1	inconclusive: 0.631 µM [inhibitor, full curve, poor fit]
COc1cc(NC(=O)CSc2ncnc3sc4c(c23)CCCC4)c(C(=O)O)cc1OC	inconclusive: 22.4 µM [quencher, side channel, single point]
Cc1ccc(C(=O)Oc2oc(-c3ccco3)nc2C=Nc2ccc(Cl)cc2)cc1	inconclusive: 39.8 µM [inhibitor, single point]
CC(C)ON(C(C(=O)NO)C(C)C)S(=O)(=O)c1ccc(-c2ccccc2)cc1 (configuration not stated)	inactive
CC(=O)n1cc([C@H]2C=C(C(=O)N3CCN(Cc4ccccc4)CC3)O[C@@H](OCc3ccc(CO)cc3)C2)c2ccccc21	inconclusive: 0.891 µM [fluorescent, side channel, full curve]
CCCNC(=O)c1ccc(N2CCC3(CC2)CC(c2cccc(Br)c2)=NO3)c([N+](=O)[O-])c1	inactive
OCC[C@@H]1C[C@@H](O)[C@H](O)[C@@]2(OCc3ccccc32)O1	inactive
CCOC(=O)C1CCCN(c2c(C(=O)c3ccccc3)cnc3ccccc23)C1 (configuration not stated)	inconclusive: 7.94 µM [fluorescent, side channel, partial curve]
CCCN1C(=O)/C(=c2\sc3nc(=O)c(Cc4ccc(C)cc4)nn3c2=O)c2ccccc21	inactive
Cc1cccc(OCC(=O)Nc2ccc3oc(=O)ccc3c2)c1C	inconclusive: 39.8 µM [inhibitor, single point]
FC(F)(F)c1ccc2c(c1)C1C=CCC1C(c1ccncc1)N2 (configuration not stated)	inconclusive: 31.6 µM [quencher, side channel, single point]
Cc1nnc(N2C(=O)C(=O)/C(=C(/O)c3ccc4c(c3)CC(C)O4)C2c2ccccc2F)s1 (configuration not stated)	inconclusive: 25.1 µM [quencher, side channel, single point]
CCn1ncc(C2=NOC(C(=O)N3CCN(c4ccccc4)CC3)C2)c1C (configuration not stated)	inconclusive: 39.8 µM [inhibitor, single point]
O=C(Cc1cccc(C(F)(F)F)c1)NCC(=O)Nc1cc(Cl)ccc1Cl	inconclusive: 39.8 µM [inhibitor, single point]
COCCNC(=O)c1cc2cc3ccc(OC)cc3nc2o1	inconclusive: 22.4 µM [inhibitor, partial curve]
O=c1nc2cccc3c2=c(/c1=C(\O)c1ccccc1)c1ccccc1c3=O	inconclusive: 10 µM [quencher, side channel, partial curve]
CCOc1ccc(NC(=S)NC(=O)/C=C/c2ccc(OC)c(OC)c2)c([N+](=O)[O-])c1	inconclusive: 3.16 µM [quencher, side channel, full curve]
COC(=O)C1=C(C)N(c2ccc(C)cc2)/C(=C/c2ccc(O)cc2)C1=O	inconclusive: 20 µM [inhibitor, partial curve]
Clc1ccccc1C1Nc2cccc3cccc(c23)N1	inconclusive: 20 µM [quencher, side channel, partial curve]

SMILES	Potency
O=C(NNC(=S)Nc1ccc(Cl)cc1Cl)c1ccncc1	inconclusive: 22.4 µM [quencher, side channel, partial curve]
Cc1ccc(CNC(=O)Cc2ccc(Br)cc2)cc1	inconclusive: 39.8 µM [inhibitor, single point]
c1ccc(CO/N=C(\c2ccc(C3CC3)nc2)C2CC2)cc1	inconclusive: 7.94 µM [fluorescent, side channel, partial curve]
O=C(c1ccco1)N1CCN(C(=O)c2cc(-c3ccccn3)nc3ccc(Cl)cc23)CC1	inconclusive: 25.1 µM [quencher, side channel, single point]
O=C(CCn1c(=S)[nH]c2ccccc2c1=O)NCCSCc1ccccc1	inconclusive: 39.8 µM [fluorescent, single point]
CC(Oc1ccc(Cl)cc1Cl)c1nc(-c2ccc(NC(=O)c3ccco3)cc2)no1 (configuration not stated)	inconclusive: 14.1 µM [quencher, side channel, partial curve]
Cc1cc(NC(=O)c2sccc2C)n(-c2nc3ccccc3[nH]2)n1	inconclusive: 11.2 µM [quencher, side channel, partial curve]
O=C(Cc1ccccc1)Nc1ccc(NC(=O)c2ccccc2)nc1	inconclusive: 39.8 µM [inhibitor, partial curve, poor fit]
CCOc1ccc(C)cc1S(=O)(=O)NC1CCCCCC1	inconclusive: 8.91 µM [fluorescent, side channel, partial curve]
CCOc1cccc(/C=C/c2ccc3cccc(O)c3n2)c1OC	inconclusive: 31.6 µM [quencher, side channel, partial curve]
CC(C)n1c(CN(C)Cc2ccccc2)nc2c1c(=O)n(C)c(=O)n2C	inconclusive: 28.2 µM [inhibitor, partial curve]
Cc1ccc(-c2cc(C(=O)Nc3ccc(S(=O)(=O)Nc4onc(C)c4C)cc3)c3ccccc3n2)cc1	inconclusive: 11.2 µM [quencher, side channel, partial curve]
Clc1cccc(Nc2ncnc3c2cnn3-c2ccccc2)c1	inconclusive: 10 µM [quencher, side channel, partial curve]
N#CCC(=O)Nc1ccc(C(=O)NCCC(c2ccccc2)c2ccccc2)cc1	inconclusive: 22.4 µM [quencher, side channel, single point]
CCn1nc(C(=O)OCC(=O)c2c[nH]c3ccccc23)c2ccccc2c1=O	inconclusive: 17.8 µM [quencher, side channel, partial curve]
COc1ccc(/C=C2/N=C(SC3CCOC3=O)N(c3cccc(OC)c3)C2=O)cc1 (configuration not stated)	inconclusive: 3.16 µM [inhibitor, full curve, poor fit]
O=C1NCC2=C1C(c1ccccc1)Nc1ccccc1N2 (configuration not stated)	inconclusive: 35.5 µM [quencher, side channel, single point]
O=C(NCc1ccco1)C1Cc2cc(Cl)ccc2O1 (configuration not stated)	inconclusive: 0.631 µM [quencher, side channel, full curve, poor fit]
CCc1ccnc(NC(=O)Nc2ccc(OCc3ccccc3)cc2)c1	inconclusive: 20 µM [fluorescent, side channel, partial curve]

SMILES	Potency
Cc1noc(NS(=O)(=O)c2ccc(N/C=C\C(=O)c3cccs3)cc2)c1C	inconclusive: 25.1 µM [quencher, side channel, single point]
Cn1c(N2CCN(C(c3ccccc3)c3ccccc3)CC2)nc2c1c(=O)[nH]c(=O)n2C	inconclusive: 14.1 µM [fluorescent, side channel, partial curve]
COc1ccc(CCNC(=O)c2cc3c(=O)n4cccc(C)c4nc3n(Cc3ccco3)c2=N)cc1OC	inconclusive: 31.6 µM [inhibitor, partial curve]
O=C(Cn1c(-c2cscn2)nc2ccccc21)Nc1ccccc1F	inconclusive: 2.82 µM [inhibitor, partial curve]
Cc1oc(-c2ccc(Cl)cc2)cc1-c1nn2c(-c3ccoc3C)nnc2s1	inconclusive: 31.6 µM [quencher, side channel, single point]
O=C(COC(=O)CNC(=O)c1sc2ccccc2c1Cl)Nc1cc(Cl)cc(Cl)c1	inconclusive: 28.2 µM [quencher, side channel, single point]
CCOc1ccccc1N=Cc1c(O)c2ccccc2oc1=O	inactive
Cn1c(=O)c(C(=O)COc2ccc(F)cc2Cl)c(N)n(Cc2ccccc2)c1=O	inconclusive: 10 µM [quencher, side channel, partial curve]
CN(C1=C(NC(=O)c2ccc(Cl)cc2)C(=O)c2ccccc2C1=O)c1ccccc1	inactive
Cc1cccc(NCC(=O)N/N=C/c2cccc(Br)c2)c1	inconclusive: 12.6 µM [quencher, side channel, partial curve]
Cc1c(C(=O)Nc2ccccc2F)cnn1-c1ccccc1	inactive
CCC(=O)Nc1nc(C)c(-c2csc(Nc3ccccn3)n2)s1	inconclusive: 14.1 µM [quencher, side channel, partial curve]
CCNc1nc(NC(C)(C)C)nc(N2CCCCC2)n1	inconclusive: 10 µM [fluorescent, side channel, partial curve]
CCOC(=O)N1CCN(C(=O)c2ccc3c(c2)N(Cc2ccccc2)CCS3)CC1	inconclusive: 15.8 µM [inhibitor, partial curve]
CCN(Cc1ccncc1)C(=O)CC1C(=O)NCCN1Cc1ccc(F)c(F)c1 (configuration not stated)	inconclusive: 31.6 µM [inhibitor, single point]
CCOc1c(OC(C)=O)ccc(/C=C/c2ccc3cccc(OC(C)=O)c3n2)c1[N+](=O)[O-]	inconclusive: 10 µM [quencher, side channel, partial curve]
O=C(Nc1ccc(Cl)c([N+](=O)[O-])c1)c1cnccn1	inconclusive: 25.1 µM [quencher, side channel, single point]
COC(=O)c1ccccc1NC(=O)NCC1CCCO1 (configuration not stated)	inactive
O=C(O)CSc1nnc(COc2cccc3cccnc23)n1-c1cccc(C(F)(F)F)c1	inconclusive: 39.8 µM [inhibitor, single point]

— PubChem BioAssay AID1768 (National Center for Advancing Translational Sciences (NCATS), 2009)
